TetR repression strength data for 130 sequences are collected here from a collection of fitness landscapes (doi:10.1038/s41467-024-54723-y).

In all, about 18,000 sequences were measured (“TetR repression strength (sort-seq, GFP reporter)”: median about 0.23, highest 2% from about 0.68 on). Some of the results follow.

UniProt P04483, sequence (P04483 whole entry): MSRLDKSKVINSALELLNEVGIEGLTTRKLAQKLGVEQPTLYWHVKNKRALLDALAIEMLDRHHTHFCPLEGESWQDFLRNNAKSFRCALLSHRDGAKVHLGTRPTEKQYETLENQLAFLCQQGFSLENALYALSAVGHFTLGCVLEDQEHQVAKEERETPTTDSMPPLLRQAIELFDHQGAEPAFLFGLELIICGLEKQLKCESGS

This assay deals with TetR (class B, Tn10) (UniProt P04483). As to the kind of experiment: TetR repression strength (sort-seq, GFP reporter) (relative to tetO2 = 1); higher = stronger repression. As to conditions: E. coli. The method, boiled down:
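Repression strength is the top bin index plus one minus the read-weighted mean bin, relative to the unaltered operator's value. A low-copy library in E. coli SIG10-MAX randomized eight operator positions between a constitutive promoter and sfGFP, with TetR expressed constitutively; cells grew 5 h at 37 °C in LB with 50 µg/mL chloramphenicol and 10^6 were FACS-sorted into 13 bins that were each Illumina-sequenced. Three independent transformations were averaged, keeping only members with ≥30 reads in all replicates and CV ≤0.5.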
Consider TCCCTTACAGTGGGTGAGA, for which the TetR repression strength stood at 0.261.
Take TCCCGAACAGTAATGGAGA: the TetR repression strength is 0.158.
Consider TCCCATTAAGTGATTGAGA, for which the TetR repression strength turned out to be 0.379.
For TCCCTGCAAGTTAGCGAGA the value was 0.178; for TCCCGAAGAGTGCGCGAGA, 0.0512; for TCCCGTGTAGTAGTCGAGA, 0.255.
Under TCCCGACGAGTAGTGGAGA stands 0.171.
For TCCCGAAGAGTCAAAGAGA the value was 0.207; for TCCCGTTTAGTACGGGAGA, 0.175.
TCCCTTCAAGTACGTGAGA: the TetR repression strength is 0.312.
Under TCCCTCGGAGTCGCGGAGA stands 0.446.
TCCCAGGTAGTCTTTGAGA registered a TetR repression strength of 0.288.
For TCCCCAGTAGTCACGGAGA, the TetR repression strength was determined as 0.215.
TCCCCAGGAGTTACGGAGA gave a TetR repression strength of 0.193.
Take TCCCGGCGAGTAAGTGAGA: the TetR repression strength was 0.287.
Under TCCCCTTTAGTAGGTGAGA stands 0.14.
Consider TCCCGTTCAGTCCGTGAGA, for which the TetR repression strength was determined as 0.376.
Under TCCCGGTGAGTAGTGGAGA stands 0.27.
For TCCCGGAGAGTGTGAGAGA, the TetR repression strength worked out at 0.257.
For TCCCCATCAGTGAGTGAGA the value was 0.409.
For TCCCCAGGAGTCCGGGAGA the value was 0.332; for TCCCGCCAAGTTGTCGAGA, 0.274; for TCCCTCACAGTCAACGAGA, 0.354.
The sequence TCCCCGTAAGTTTATGAGA showed a TetR repression strength of 0.301.
TCCCAGATAGTTAGCGAGA displayed a TetR repression strength of 0.586.
For the sequence TCCCTTTAAGTTTACGAGA, the TetR repression strength amounted to 0.463.
In the case of TCCCGCCTAGTGGTGGAGA, the TetR repression strength was 0.124.
Under TCCCGAGTAGTAGATGAGA stands 0.147.
Under TCCCGTGCAGTGGGGGAGA stands 0.194; under TCCCTTGCAGTCCAGGAGA, 0.246; under TCCCCACTAGTCTGCGAGA, 0.602.
For TCCCCAGGAGTATTCGAGA the value was 0.238.
TCCCTATCAGTGATGGAGA displayed a TetR repression strength of 0.999.
Under TCCCGGCGAGTTATGGAGA stands 0.347.
As to TCCCTATCAGTTTATGAGA, the TetR repression strength was determined as 0.407.
Sequence TCCCATTGAGTCAACGAGA showed a TetR repression strength of 0.386.
Under TCCCGAGGAGTGGTGGAGA stands 0.104.
For TCCCCGCCAGTCGGGGAGA the value was 0.179; for TCCCTAGCAGTCAAAGAGA, 0.295.
For TCCCCCGTAGTGAAGGAGA the value was 0.163; for TCCCTTTGAGTTGTTGAGA, 0.341; for TCCCGTAAAGTCAACGAGA, 0.311.
Turning to TCCCTGGGAGTAAAGGAGA, the TetR repression strength stood at 0.0803.
For TCCCATAAAGTGAGGGAGA the value was 0.243; for TCCCTCTGAGTAGGGGAGA, 0.224; for TCCCTAAGAGTACACGAGA, 0.166.
For TCCCGAGCAGTAAGCGAGA the value was 0.344; for TCCCGCCGAGTTGTTGAGA, 0.0225; for TCCCGGGGAGTAGACGAGA, 0.339.
For TCCCGCATAGTTTGGGAGA the value was 0.207; for TCCCTGGCAGTAGGGGAGA, 0.185.
In turn, TCCCCAGTAGTTGGTGAGA had a TetR repression strength of 0.114.
For TCCCATGTAGTGTTTGAGA the value was 0.104.
For TCCCCAATAGTAGAGGAGA the value was 0.37.
For TCCCCCCTAGTAGCAGAGA the value was 0.32; for TCCCGTGTAGTTGGGGAGA, 0.248; for TCCCGAACAGTGGCGGAGA, 0.0919.
TCCCGGAAAGTAACGGAGA gave a TetR repression strength of 0.0312.
Under TCCCTAAGAGTTTGGGAGA stands 0.111.
Under TCCCGTTCAGTTTAAGAGA stands 0.481.
In the case of TCCCGTAGAGTCTCTGAGA, the TetR repression strength turned out to be 0.183.
For TCCCCCGGAGTGTGTGAGA the value was 0.281; for TCCCAACAAGTCGGAGAGA, 0.324; for TCCCCGCTAGTAGTGGAGA, 0.347.
Under TCCCGTGGAGTATTTGAGA stands 0.338.
Under TCCCGGTCAGTAGATGAGA stands 0.197; under TCCCTATCAGTCGTAGAGA, 0.557; under TCCCAGAAAGTGAGGGAGA, 0.254.
In the case of TCCCGAGTAGTGGATGAGA, the TetR repression strength worked out at 0.149.
Under TCCCGGGGAGTGTGGGAGA stands 0.25; under TCCCGCGTAGTCGATGAGA, 0.303; under TCCCTAATAGTATGTGAGA, 0.253.
For the sequence TCCCCGTCAGTTTCTGAGA, the TetR repression strength is 0.0269.
TCCCGTACAGTATCGGAGA gave a TetR repression strength of 0.253.
Regarding TCCCCCTGAGTGTGCGAGA, the TetR repression strength came to 0.518.
Under TCCCCTGCAGTGTTTGAGA stands 0.418.
Under TCCCACAGAGTTAGGGAGA stands 0.22; under TCCCTTTTAGTGCTTGAGA, 0.322.
With TCCCAGTTAGTCTCCGAGA, the TetR repression strength turned out to be 0.178.
Under TCCCTTTGAGTTTCGGAGA stands 0.148.
Sequence TCCCGTCTAGTGGCTGAGA gave a TetR repression strength of 0.22.
For TCCCAGGCAGTGCCAGAGA the value was 0.0122; for TCCCGTAGAGTGGGCGAGA, 0.193.
Under TCCCTCCGAGTGCAGGAGA stands 0.492; under TCCCATAGAGTATAGGAGA, 0.181.
Under TCCCGAACAGTGTCGGAGA stands 0.191; under TCCCTGTGAGTTAGGGAGA, 0.285; under TCCCATGAAGTACATGAGA, 0.235.
For TCCCGTTAAGTGGACGAGA, the TetR repression strength amounted to 0.0963.
Under TCCCGGATAGTCTTTGAGA stands 0.125.
Under TCCCGGATAGTCTAGGAGA stands 0.179; under TCCCCAAAAGTTGTTGAGA, 0.452.
For TCCCGAATAGTTGCGGAGA the value was 0.101; for TCCCCAGGAGTACGCGAGA, 0.207.
In the case of TCCCCAGGAGTGGTAGAGA, the TetR repression strength worked out at 0.189.
For TCCCGTATAGTAGGGGAGA the value was 0.0295.
For TCCCATGGAGTTAAAGAGA the value was 0.356.
Under TCCCCGGAAGTTTTCGAGA stands 0.107; under TCCCTCACAGTGGTAGAGA, 0.157.
In turn, TCCCCTATAGTACAGGAGA displayed a TetR repression strength of 0.792.
Under TCCCCGTAAGTATGCGAGA stands 0.0115.
Under TCCCTGATAGTGTAGGAGA stands 0.0352; under TCCCTGTCAGTCTTAGAGA, 0.117; under TCCCAGGGAGTAGTGGAGA, 0.166.
Under TCCCCGGAAGTGTGTGAGA stands 0.208; under TCCCAACCAGTTGAGGAGA, 0.248.
As to TCCCTGGCAGTCGGCGAGA, the TetR repression strength worked out at 0.362.
For TCCCGTATAGTGGGCGAGA the value was 0.0906.
TCCCCAGGAGTCCAGGAGA: the TetR repression strength was found to be 0.321.
Under TCCCGGCGAGTCCTCGAGA stands 0.458; under TCCCCGGCAGTCGAGGAGA, 0.0942; under TCCCCGCTAGTGGAGGAGA, 0.234.
For TCCCCACGAGTAGTCGAGA the value was 0; for TCCCTACGAGTGTCGGAGA, 0.258.
For TCCCTAGTAGTTGTTGAGA the value was 0.308.
In turn, TCCCGTACAGTGATTGAGA gave a TetR repression strength of 0.368.
Under TCCCATCTAGTTATAGAGA stands 0.333; under TCCCGTTTAGTGGTCGAGA, 0.0709; under TCCCGGTAAGTACGAGAGA, 0.218.
Under TCCCGCGCAGTGCATGAGA stands 0.281; under TCCCTGGGAGTATTGGAGA, 0.191.
Under TCCCTTCAAGTTCTGGAGA stands 1.03; under TCCCCCTTAGTTTTGGAGA, 0.162.
The sequence TCCCTCGGAGTGGTGGAGA gave a TetR repression strength of 0.157.
Under TCCCAGCCAGTGCGGGAGA stands 0.255; under TCCCGGAAAGTCTGCGAGA, 0.201.
For TCCCAGGGAGTGGACGAGA the value was 0.379.
For TCCCATTCAGTATTAGAGA the value was 0.443.
In turn, TCCCGGGCAGTGTATGAGA came in with a TetR repression strength of 0.135.
Under TCCCACGCAGTGTTGGAGA stands 0.393.
